Source: PubChem BioAssay AID492949 (National Center for Advancing Translational Sciences (NCATS), 2010)
The inconclusive results got no clear call from the source; some entries with a clear call stand among them for comparison. A potency beside an inconclusive call is a rough fit, not a confirmed value. Calls of active or inactive are those of the source. Calls come from the whole dose curve; as a rule, active = well fitted activation curve with a large enough effect; inconclusive = small, poorly fitted or top-dose-only effect; inactive = no such curve, though single readings can be large or run the other way.

Molecular target: Relaxin receptor 1 (Homo sapiens) (UniProt Q9HBX9)
Chain of UniProt Q9HBX9 (Q9HBX9 whole entry, looked up): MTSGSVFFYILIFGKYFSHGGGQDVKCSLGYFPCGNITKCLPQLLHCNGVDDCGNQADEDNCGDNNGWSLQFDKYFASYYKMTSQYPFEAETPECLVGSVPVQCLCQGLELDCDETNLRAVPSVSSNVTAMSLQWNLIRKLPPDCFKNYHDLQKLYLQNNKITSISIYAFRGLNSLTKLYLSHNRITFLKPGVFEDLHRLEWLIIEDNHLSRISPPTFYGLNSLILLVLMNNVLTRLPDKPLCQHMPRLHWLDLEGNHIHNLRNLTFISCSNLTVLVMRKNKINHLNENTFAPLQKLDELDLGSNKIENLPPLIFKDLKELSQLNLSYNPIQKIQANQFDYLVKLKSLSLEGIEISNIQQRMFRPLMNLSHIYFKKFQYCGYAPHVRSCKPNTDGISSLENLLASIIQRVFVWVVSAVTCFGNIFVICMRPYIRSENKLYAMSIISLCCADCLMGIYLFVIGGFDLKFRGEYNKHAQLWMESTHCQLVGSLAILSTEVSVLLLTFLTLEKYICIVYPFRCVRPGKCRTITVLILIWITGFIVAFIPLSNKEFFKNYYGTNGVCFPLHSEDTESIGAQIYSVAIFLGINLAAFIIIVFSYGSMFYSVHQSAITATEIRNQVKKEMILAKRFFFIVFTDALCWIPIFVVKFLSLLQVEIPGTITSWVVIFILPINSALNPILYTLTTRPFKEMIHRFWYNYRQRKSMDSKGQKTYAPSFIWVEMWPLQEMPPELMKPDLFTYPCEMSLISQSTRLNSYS
Assay: qHTS Assay for Agonists of the Relaxin Receptor RXFP1: THP1 Hit Validation; note: nearly all actives have a fitted effect of over 60% in size;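 for activation: 0% = buffer alone basal and 100% = 29 nM porcine relaxin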
Settings: THP1-RXFP1 cells, cAMP TR-FRET, 30 min; series mostly up to 115 µM; activation: at the top concentration
Text: The relaxin hormone is involved in the variety of biological functions in normal tissues and diseases. The role of relaxin is well-established in female reproduction and parturition, mammary gland and endometrial development, maintenance of myometrial quiescence during pregnancy. Relaxin signaling through its G protein-coupled receptor (GPCR) RXFP1 results in ECM remodeling through regulation of collagen deposition, cell invasiveness, proliferation and overall tissue homeostasis. […] Recombinant human relaxin (rhRlx) is currently being tested in clinical trials as a protective agent in congestive heart failure, in treating severe preeclampsia, and as an anti-fibrotic agent in systemic sclerosis.
Upon relaxin binding RXFP1 activation leads to the activation of adenylate cyclase (AC) via Gs. cAMP will activate PKA, which phosphorylates many signaling proteins. Thus, detection of cAMP increase is an easy and reliable indication of relaxin receptor activation. To screen for agonists of the relaxin receptor, a THP1 cell line stably transfected with RXFP1 was used. RXFP1 activation was assayed by changes in cAMP levels as detected with a time-resolved fluorescence energy transfer (TR-FRET) cAMP detection kit.
NIH Chemical Genomics Center [NCGC]
NIH Molecular Libraries Probe Production Centers Network [MLPCN]
Assay Submitter (PI): Alexander Agoulnik
NCGC Assay Protocol Summary:
This is a cell-based assay for cAMP second messenger response to screen for agonists of the RXFP1 receptor. The assay was conducted in the presence of a PDE4 inhibitor (Ro 20174). The cells were lysed and the cAMP levels were measured with a TR-FRET cAMP kit. Presence of cAMP in the cell lysate disrupts binding between the cryptate-labeled anti-cAMP and d2-labeled cAMP pair, leading to a decrease in the TR-FRET signal. Data were normalized to the controls for basal activity (buffer only) and 100% activity (29 nM porcine relaxin). The EC50 values were determined from concentration-response data modeled with the standard Hill equation
1536-well assay protocol for the THP1 RXFP1 cAMP assay:
(1) Add 3 ul THP1 RXFP1 cell culture. 2000 cells/well in DMEM/F12, 10% FBS, 1x Pen/Strep (dispensed offline with MultiDrop Combi).
(3) Add 23 nl compounds in DMSO solution. Final concentration was 0.5 - 58 uM.
(4) Incubate 30 min at 37C, 5% CO2.
(5) Add 1 ul cAMP-d2 in lysis buffer (HTRF cAMP HiRange kit, CisBio).
(6) Add 1 ul anti-cAMP antibody-cryptate in lysis buffer (HTRF cAMP HiRange kit, CisBio).
(7) Incubate 30 min at room temperature.
(6) Detect the assay plate in a ViewLux plate reader (PerkinElmer) with Ex=320 nm, Em1=615 nm and Em2=665 nm.
Keywords: relaxin, RXFP1, RXFP2, G-protein coupled receptor, cAMP, agonist, high throughput screening, MLSMR, MLSCN, NIH Roadmap, qHTS and NCGC
Potency is the fitted concentration of half-maximal effect; tags give direction and shape of the fitted curve.

Compound | Potency | activation
Cn1c(O)c(N=Nc2cccc(S(=O)(=O)N3CCOCC3)c2)c(=O)n(C)c1=O | inconclusive: 13.8 µM [activator, full curve] | –
O=C1OCc2cc(N=Nc3c(O)[nH]c(=O)[nH]c3=O)ccc21 | inconclusive: 4.89 µM [activator, full curve, poor fit] | –
CCC(Oc1cc(Cl)ccc1Cl)C(=O)N1CCC2(CC1)OCCO2 (stereo not drawn) | – | inactive: 6.4%
O=C(O)c1sc2cc(Cl)ccc2c1Cl | inconclusive: 19.4 µM [activator, partial curve] | –
Nc1ncc2[nH]cnc2n1 | inconclusive: 8.7 µM [activator, full curve] | –
Cc1ccc(-c2nn3c(C)nnc3c3ccccc23)cc1S(=O)(=O)NCCO | inconclusive: 38.9 µM [activator, partial curve] | –
CCNC(=O)[C@H]1O[C@@H](n2cnc3c(N)ncnc32)[C@H](O)[C@@H]1O | inconclusive: 13.8 µM [activator, partial curve] | –
O=c1[nH]c(O)c(N=Nc2ccc([N+](=O)[O-])cc2)c(=O)[nH]1 | active: 11 µM | –
